Measured values published in PubChem BioAssay AID588591 (National Center for Advancing Translational Sciences (NCATS), 2011).
About 4,700 (1.2%) of roughly 390,000 compounds were called active. The inconclusive results got no clear call from the source; some entries with a clear call stand among them for comparison. The call rests on the fitted dose curve; in most records, active means well fitted inhibition curve with a large enough effect; inconclusive means small, poorly fitted or top-dose-only effect, or another doubt; inactive means no such curve, though single readings can be large or run the other way. A potency beside an inconclusive call is a rough fit, not a confirmed value. A structure can be active in one record and inactive in another.

Target: DNA polymerase eta (Homo sapiens) (UniProt Q9Y253)
Chain of UniProt Q9Y253 (Q9Y253 whole entry, looked up): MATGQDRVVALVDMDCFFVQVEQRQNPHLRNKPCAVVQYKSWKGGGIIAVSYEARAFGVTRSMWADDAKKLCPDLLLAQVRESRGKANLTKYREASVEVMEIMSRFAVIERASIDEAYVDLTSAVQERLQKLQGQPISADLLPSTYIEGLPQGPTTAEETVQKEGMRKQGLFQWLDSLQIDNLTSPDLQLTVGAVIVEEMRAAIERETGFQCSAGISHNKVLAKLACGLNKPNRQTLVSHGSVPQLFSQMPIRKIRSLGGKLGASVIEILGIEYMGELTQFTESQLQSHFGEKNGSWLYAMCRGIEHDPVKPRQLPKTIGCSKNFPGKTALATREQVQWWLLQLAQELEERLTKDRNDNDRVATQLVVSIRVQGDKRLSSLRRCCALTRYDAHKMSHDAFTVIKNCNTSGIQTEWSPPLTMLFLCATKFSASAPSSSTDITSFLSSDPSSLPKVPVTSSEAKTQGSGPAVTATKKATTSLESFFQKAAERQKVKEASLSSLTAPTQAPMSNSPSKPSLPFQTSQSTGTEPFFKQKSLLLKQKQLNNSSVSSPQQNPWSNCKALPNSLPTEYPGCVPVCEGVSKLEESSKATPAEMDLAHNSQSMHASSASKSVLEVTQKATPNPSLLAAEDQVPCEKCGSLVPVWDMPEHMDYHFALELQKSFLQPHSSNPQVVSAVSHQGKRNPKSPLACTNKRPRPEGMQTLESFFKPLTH
Assay: qHTS for Inhibitors of Polymerase Eta
Details: recombinant Pol eta, fluorescent DNA replication assay; series mostly up to 114 µM; activity change, negative = inhibition: at the top concentration
How it was run: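 Pol eta (10 nM) was preincubated with compounds for 15 min at room temperature, after which fluorescent replication substrate (50 nM final) was added to start the reaction. Fluorescence was read kinetically at 0 and 10 min.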
On the % scale 0 is the no-effect control and ±100 the full control effect; potency means the concentration at half of the fitted maximal effect; tags describe the fitted curve by direction and shape.

Structure (SMILES) | Potency | activity change, negative = inhibition
Cc1cc(C)cc(S(=O)(=O)c2cn(C)c3cc(N4CCN(C)CC4)c(F)cc3c2=O)c1 | inconclusive: 35.5 µM [inhibitor, partial curve, poor fit] | –
CCOC1CCCC(n2cnc3c(=S)nc[nH]c32)O1 (stereo not given) | active: 17.8 µM | –
C1CN(c2nc(N3CCOCC3)nc(N3CCOCC3)n2)CCO1 | inconclusive: 89.1 µM [inhibitor, partial curve, poor fit] | –
O=c1oc2c(O)cccc2cc1-c1nc2ccccc2[nH]1 | inconclusive: 56.2 µM [inhibitor, partial curve, poor fit] | –
N/C(=N\OC(=O)c1ccc2ccccc2c1)c1ccccn1 | – | inactive: -12.5%
O=C(CCCN1C(=O)CCC1=O)Nc1ccc2c(c1)OCO2 | inconclusive: 12.6 µM [inhibitor, partial curve, poor fit] | –
C/C(Cl)=C\Cn1c(O)c(N=NC(N)=S)c2cc(Br)ccc21 | inconclusive: 89.1 µM [inhibitor, partial curve, poor fit] | –
O=C(CC1(O)C(=O)N(CCc2ccccc2)c2ccc(Br)cc21)c1ccc(F)cc1 (stereo not given) | inconclusive: 39.8 µM [inhibitor, partial curve, poor fit] | –
COc1cc2cc(CNc3ccccc3)c(=O)n(CC(=O)Nc3ccccc3)c2cc1OC | – | inactive: -11.4%
CCOC(=O)c1cc(C)n(CC2CCC(C(=O)Nc3ccc(C(C)=O)cc3)CC2)c1C (stereo not given) | – | inactive: -2.13%
CCOC(=O)c1ccc2[nH]c3c(c2c1)CCCC3C(=O)OCC (stereo not given) | inconclusive: 56.2 µM [inhibitor, partial curve, poor fit] | –
O=C(Cn1cncc1-c1ccc([N+](=O)[O-])cc1)Nc1ccccc1F | inconclusive: 22.4 µM [inhibitor, partial curve, poor fit] | –
O=C(O)c1ccc(N2CCCS2(=O)=O)cc1 | – | inactive: -7.06%
CCOc1ccc(/C=C/C(=O)Nc2sc3c(c2C(=O)OC)C(C(=O)OC)CC3)cc1 (stereo not given) | active: 50.1 µM | –
CN(C)/C=C1\SC(=S)N(c2ccc(F)cc2)C1=O | – | inactive: -9.61%
O=C1c2ccccc2-c2nc3ccccc3nc21 | inconclusive: 35.5 µM [inhibitor, partial curve, poor fit] | –
O=C1c2ccccc2-c2nnc(-c3ccc(F)cc3)cc21 | – | inactive: -13.6%
COc1cccc(OCc2cc(C(=O)N3CCN(c4ccccc4OC)CC3)no2)c1 | – | inactive: -11.9%
C#Cc1ccc([C@H]2C=C(C(=O)OCC=C)O[C@@H](OCCCCO)C2)cc1 | active: 31.6 µM | –
O=C1C(c2cc(=O)c3ccccc3[nH]2)=C(O)c2ccccc21 | inconclusive: 22.4 µM [inhibitor, full curve] | –
O=C1NC(=Nc2ccc3ccccc3c2)S/C1=C/c1ccco1 | active: 35.5 µM | –
Cc1ccc(NC(=O)CN(C)Cc2c(O)ccc3ccccc23)cc1 | – | inactive: -19.7%
O=C(O)/C=C/C(=O)NNC(=O)c1cc(-c2ccccc2)n[nH]1 | inconclusive: 44.7 µM [inhibitor, partial curve, poor fit] | –

Structure (SMILES) | Potency | activity change, negative = inhibition
O=C(COC(=O)c1ccc(Cl)c(S(=O)(=O)N2CCCC2)c1)NCc1ccccc1 | inconclusive: 22.4 µM [inhibitor, partial curve, poor fit] | –
Cc1nn(-c2ccc(Cl)cc2)c(=O)c2ccccc12 | – | inactive: -12.4%
CC(C)CNS(=O)(=O)c1ccc(CCC(=O)NC2CCCCC2)cc1 | inconclusive: 89.1 µM [inhibitor, partial curve, poor fit] | –
CCOc1ccccc1CNCCNC(=O)c1nonc1N | inconclusive: 89.1 µM [inhibitor, partial curve, poor fit] | –
Nc1ccc(N2CCOCC2)c(S(=O)(=O)Nc2cc(Cl)ccc2Cl)c1 | inconclusive: 79.4 µM [inhibitor, partial curve] | –
CCCCN(C(=O)Cn1ncc(Cl)c(Cl)c1=O)c1c(N)n(CC(C)C)c(=O)[nH]c1=O | active: 28.2 µM | –
O=C(c1cccnc1)N(c1cc2sc(=O)oc2c2ccccc12)S(=O)(=O)c1ccccc1 | inconclusive: 11.2 µM [inhibitor, partial curve, poor fit] | –
CC/C(=N\NC(=O)CNC(=O)/C=C/c1ccco1)c1ccccc1 | inconclusive: 14.1 µM [inhibitor, partial curve, poor fit] | –
CN(C)c1ccc(N=Nc2ccccc2C(=O)OCC(=O)N2CCCC2)cc1 | – | inactive: -11%
Cc1ccccc1NC(=O)CSc1[nH]c(=O)cc(C)c1C#N | active: 20 µM | –
CCOc1cc(/C=C2/SC(=S)N(Cc3ccccc3)C2=O)ccc1O | inconclusive: 39.8 µM [inhibitor, partial curve, poor fit] | –
CC(C(=O)O)N1C(=O)/C(=C/C=C/c2ccco2)SC1=S (stereo not given) | active: 0.794 µM | –
Cc1ccc2oc(-c3cccc(NC(=S)NC(=O)/C=C/c4ccco4)c3)nc2c1 | active: 12.6 µM | –
CCNC(=O)CC1C(=O)N(c2ccc(F)cc2)C(=O)N1Cc1ccc(OC)cc1 (stereo not given) | – | inactive: -6.96%
COc1ccc2oc(C(=O)NCCc3ccccc3)c(C)c2c1 | inconclusive: 89.1 µM [inhibitor, partial curve] | –
CN(C)CCCn1c2c3ccccc3ccc2c2oc(=O)c3ccccc3c21 | inconclusive: 8.91 µM [inhibitor, full curve, poor fit] | –
O=C(O)C1Nc2c(C(=O)N3CCOCC3)cccc2C2C=CCC12 (stereo not given) | active: 3.16 µM | –
N#C/C(=C\c1ccc(O)c(O)c1)C(=O)NCc1ccccc1 | active: 11.2 µM | –
O=C(CSc1nnc(-c2ccccc2F)n1CCc1ccccc1)Nc1ccc2[nH]c(=O)[nH]c2c1 | inconclusive: 28.2 µM [inhibitor, partial curve] | –
Cc1ccc(C)c(OCC(=O)Nc2cc(NC(=O)COc3cc(C)ccc3C)cc(C(=O)O)c2)c1 | active: 50.1 µM | –
CCCCn1nnc(NC(=S)NC(=O)c2ccc(-c3cccc(Cl)c3Cl)o2)n1 | inconclusive: 35.5 µM [inhibitor, partial curve, poor fit] | –
Cc1cc(=O)oc2cc(OCC(=O)N3c4ccccc4NC(=O)C3(C)C)ccc12 | active: 56.2 µM | –
